# Assays:
# Mapk14 = Mapk14 (Homo sapiens, UniProt Q16539); settings: cited from earlier work
# [1] = test system: murine liver cancer cells (Nras arf-/-); experiment: viable cell count of cultivated murine liver cancer cells (FIG. 8, 12, 16); assay type: cell-based, mouse; settings: two days of treatment; for viable cell count, efficacy of combination: inhibitor in combination with Sorafenib; for viable cell count: single agent, 10 μM Sorafenib, 2 μM or 12 μM BIRB
# Procedure: In the assay, murine liver cancer cells (Nras arf−/−) were cultivated.
# (§1) Similar to the assay for BIRB-796, SB 202190 was tested in an in vitro assay of the murine liver cancer cells (Nras Arf−/−) and the human liver cancer cell line (Hep3B).
# [2] = test system: human liver cancer cell line (Hep3B); experiment: viable cell count of cultivated human liver cancer cell line (FIG. 9, 13, 17); assay type: cell-based; settings: for viable cell count, efficacy of combination: inhibitor in combination with Sorafenib; for viable cell count, efficacy of combination / viable cell count: 7 days of treatment; for viable cell count: single agent, 2 μM Sorafenib, 2 μM or 12 μM BIRB; for viable cancer cells compared to Sorafenib alone: 12 μM inhibitor with 2 μM Sorafenib, 7 days
# Procedure: as §1
# liver carcinomas = experiment: survival of mice with liver carcinomas carrying doxycycline-inducible shRNA, with or without Sorafenib (FIG. 7); settings: Sorafenib without inactivation of Mapk14 (shMapk14.1095 -DOX or shcontrol +DOX)
# [3] = test system: liver cancer induced by NrasG12V; experiment: survival of p19Arf-/- mice with NrasG12V-induced liver cancer expressing shRNA, with or without Sorafenib (FIG. 2); assay type: in vivo, mouse; settings: Sorafenib with non-specific shRNA (shcontrol), versus shcontrol+carrier
# Text: As a representative of a human patient having liver cancer, a genetically manipulated mouse model (p19^Arf−/−) was generated, in which liver cancers were induced by a constitutive expression of the oncogenic NrasG12V mutant.
# The nucleic acid construct for generating liver carcinomas is schematically shown in FIG. 1, containing an expression cassette, wherein the coding sequence for NrasG12V is arranged between a 5′ promoter sequence and a 3′ polyadenylation site, which expression cassette is flanked by two inverted repeat elements (IR). For intrahepatic delivery of the expression cassette, this nucleic acid construct was administered in combination with a nucleic acid construct containing an expression cassette for the transposase sleeping beauty 13 (SB 13) under the control of the constitutive phosphoglycerate kinase promoter (PGK). The mouse model receiving both nucleic acid constructs shown in FIG. 1 was p19^Arf−/−, providing the genetic background sufficient for constitutive generation of murine liver cancer. Nucleic acid constructs were introduced into experimental mice using hydrodynamic tail vein injection.
# Mice that were genetically conditioned to develop liver cancer were treated with a pharmaceutical composition containing Sorafenib in a carrier, and carrier alone as a control. […]
# human liver cancer cells = settings: 12 μM inhibitor + 2 μM Sorafenib; 7 days
# [4] = test system: human liver cancer cells (Hep3B); experiment: dead cell count by trypane blue staining (FIG. 11, 15); settings: inhibitor in combination with Sorafenib versus either alone and carrier
# Sequence of UniProt Q16539 (Q16539 whole entry): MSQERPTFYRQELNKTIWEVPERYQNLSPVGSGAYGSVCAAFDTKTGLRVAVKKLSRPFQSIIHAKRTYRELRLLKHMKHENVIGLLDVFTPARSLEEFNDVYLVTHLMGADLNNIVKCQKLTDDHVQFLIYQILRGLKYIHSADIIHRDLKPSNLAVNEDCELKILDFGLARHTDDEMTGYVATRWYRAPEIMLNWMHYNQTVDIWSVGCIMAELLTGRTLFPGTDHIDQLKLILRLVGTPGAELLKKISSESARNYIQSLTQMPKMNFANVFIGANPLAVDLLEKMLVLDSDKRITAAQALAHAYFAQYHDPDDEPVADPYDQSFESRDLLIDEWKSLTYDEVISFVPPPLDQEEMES
Compound,IC50 (Mapk14),"viable cell count, efficacy of combination [1]","viable cell count, efficacy of combination [2]",other results
"NC(=O)c1ccc2[nH]ccc2c1 [SD 169, 1H-Indole-5-carboxamide]",3.2 nM,,,
"C[C@]1(C(=O)N2CCOCC2)CO[C@H](c2nc(-c3ccc(F)cc3)c(-c3ccnc(NC4CC4)n3)[nH]2)OC1 [RPR203494, trans-N-cyclopropyl-4-[4-(4-fluorophenyl)-2-[5-methyl-5-(4-morpholinylcarbonyl)-1,3-dioxan-2-yl]-1H-imidazol-5-yl]pyrimidin-2-amine]",9 nM,,,
indole-5-carboxamide [SD282],1.1 nM,,,
"Fc1ccc(-c2[nH]cc(C3=CCN(CCc4ccccc4)CC3)c2-c2ccncc2)cc1 [R-130823, 2-(4-fluorophenyl)-4-(1-phenethyl-1,2,3,6-tetrahydropyridin-4-yl)-3-(pyridin-4-yl)-1H-pyrrole]",22 nM,,,
CN(C)C(=O)C(=O)c1cn(C)c2cc(Cl)c(C(=O)N3CCC(Cc4ccc(F)cc4)CC3)cc12 [SX 011],9 nM,marked increase in the efficacy over Sorafenib alone,marked increase in the efficacy over Sorafenib alone,
CNC(=O)c1cc(Oc2ccc(NC(=O)Nc3ccc(Cl)c(C(F)(F)F)c3)cc2)ccn1 [Sorafenib],,,,viable cell count [1]: decrease of viable cancer cells; survival rate (liver carcinomas): lower survival rate; survival rate [3]: increased survival rate; viable cell count [2]: decrease of viable cancer cells
"Cc1nc(-c2ccccc2)c(-c2ccncc2)o1 [SC-68376, 2-methyl-4-phenyl-5-(4-pyridyl)oxazole]",2000 to 5000 nM,,,
"COc1cc(SC)ccc1C(=O)N1CCC(Cc2ccccc2)CC1 [JX 401, 1-[2-methoxy-4-(methylthio)benzoyl]-4-(phenylmethyl)piperidine]",32 nM,,,
"Oc1ccc(-c2nc(-c3ccc(F)cc3)c(-c3ccncc3)[nH]2)cc1 [SB202190, 4-[4-(4-fluorophenyl)-5-(4-pyridinyl)-1H-imidazol-2-yl]phenol]",,marked increase in the efficacy over Sorafenib alone,marked increase in the efficacy over Sorafenib alone,cell density by crystal violet staining (human liver cancer cells): increases the efficacy of Sorafenib; dead cell count [4]: significantly more effective than Sorafenib or SB202190 alone; viable cancer cells compared to Sorafenib alone [2]: significant decrease in viable cancer cells
"Cc1ccc(-n2nc(C(C)(C)C)cc2NC(=O)Nc2ccc(OCCN3CCOCC3)c3ccccc23)cc1 [BIRB 796, 1-[5-tert-butyl-2-(4-methylphenyl)pyrazol-3-yl]-3-[4-(2-morpholin-4-ylethoxy)naphthalen-1-yl]urea]",,marked increase in the efficacy over Sorafenib alone,marked increase in the efficacy over Sorafenib alone,viable cell count [1]: no significant influence; cell density by crystal violet staining (human liver cancer cells): increases the efficacy of Sorafenib; dead cell count [4]: more prominent; viable cancer cells compared to Sorafenib alone [2]: significant decrease in viable cancer cells; viable cell count [2]: reduction of viable human cancer cells

# Source: US10441577B2, “Medicament for treatment of liver cancer” (HELMHOLTZ ZENTRUM FUER INFEKTIONSFORSCHUNG, priority 2011, dated 2019)
